This is one part of the list.
How the values were obtained:
[1] = system: HSkMC (human skeletal muscle cells); test: cytotoxicity call (relative viability < 0.9); details: 10 µM
[2] = system: S. aureus RN4220; test: growth inhibition call (relative growth <= 0.2); details: 50 µM

CC(=O)N[C@@H]1C[C@H](O)[C@@H](O)CCC(=O)N[C@H](c2ccccc2)COC1=O
cytotoxicity call [1]: inactive | growth inhibition call [2]: inactive

COc1ccc(S(=O)(=O)Nc2ccc3c(c2)CC(=O)N([C@@H](C)CO)C[C@@H](C)[C@@H](CN(C)Cc2ccc(Oc4ccccc4)cc2)O3)cc1
cytotoxicity call [1]: inactive | growth inhibition call [2]: inactive

NC[C@@H]1CC(=O)N(Cc2ccccc2)C1
cytotoxicity call [1]: inactive | growth inhibition call [2]: inactive

C[C@@H]1CN([C@@H](C)CO)C(=O)c2cc(NC(=O)Cc3cn(C)c4ccccc34)ccc2O[C@H]1CN(C)Cc1ccc(-c2ccccc2)cc1
cytotoxicity call [1]: inactive | growth inhibition call [2]: inactive

COc1ccc(CN(C)C[C@H]2OCCCC[C@@H](C)Oc3ccc(NS(=O)(=O)c4ccc(OC)cc4)cc3C(=O)N([C@H](C)CO)C[C@H]2C)cc1
cytotoxicity call [1]: inactive | growth inhibition call [2]: inactive

C[C@@H]1CN([C@@H](C)CO)C(=O)Cc2cc(NC(=O)Nc3ccc(C(F)(F)F)cc3)ccc2O[C@H]1CN(C)S(C)(=O)=O
cytotoxicity call [1]: inactive | growth inhibition call [2]: inactive

CCCCC(O)c1ccccc1 (configuration not stated)
cytotoxicity call [1]: inactive | growth inhibition call [2]: inactive

C[C@@H]1CN([C@H](C)CO)C(=O)CCCn2nncc2CO[C@H]1CN(C)S(=O)(=O)c1cn(C)cn1
cytotoxicity call [1]: inactive | growth inhibition call [2]: inactive

Cc1noc(C)c1NC(=O)Nc1cccc2c1O[C@@H](CN(C)Cc1ccc(C(=O)Nc3ccccc3N)cc1)[C@@H](C)CN([C@H](C)CO)C2=O
cytotoxicity call [1]: inactive | growth inhibition call [2]: inactive

COC(=O)C[C@@H]1CC[C@@H]2[C@H](COC[C@H](O)CN2S(=O)(=O)c2ccccc2C)O1
cytotoxicity call [1]: inactive | growth inhibition call [2]: inactive

Cc1ccc(S(=O)(=O)N(C)C[C@H]2Oc3ccc(NS(=O)(=O)c4c(C)noc4C)cc3C(=O)N([C@@H](C)CO)C[C@H]2C)cc1
cytotoxicity call [1]: inactive | growth inhibition call [2]: inactive

CNC(=O)C[C@H]1CC[C@H]2[C@@H](COC[C@@H](O)CN2C(=O)c2ccc3c(c2)OCO3)O1
cytotoxicity call [1]: inactive | growth inhibition call [2]: inactive

CCc1nc2ccc(C(=O)Nc3cc(-c4ccccc4)ccc3OC)cn2c1N(C)C(=O)Cc1ccccc1
cytotoxicity call [1]: inactive | growth inhibition call [2]: inactive

O=C(Nc1ccno1)N1CCOCC1
cytotoxicity call [1]: inactive | growth inhibition call [2]: inactive

COc1ccccc1C#Cc1cnc2c(c1)C(=O)N([C@@H](C)CO)C[C@@H](C)[C@H](CN(C)C(=O)c1ccc3c(c1)OCO3)O2
cytotoxicity call [1]: inactive | growth inhibition call [2]: inactive

COC(=O)c1c(CC[C@@H](CO)NC(=O)N2CCC[C@H]2Cn2cc(-c3ccccn3)nn2)oc(C(C)=O)c1C(=O)OC
cytotoxicity call [1]: inactive | growth inhibition call [2]: inactive

C[C@H](CO)N1C[C@H](C)[C@H](CN(C)Cc2ccc(-c3ccccc3)cc2)Oc2c(NS(=O)(=O)c3ccccc3)cccc2C1=O
cytotoxicity call [1]: inactive | growth inhibition call [2]: inactive

O=C1O[C@@H](c2ccccc2)[C@@H](c2ccccc2)N2[C@@H](c3ccccc3OCCO)[C@]3(C(=O)Nc4ccc(C#CC5=CCCCC5)cc43)[C@@H](C(=O)O)[C@H]12
cytotoxicity call [1]: inactive | growth inhibition call [2]: inactive

COC(=O)[C@H]1C[C@@]2(C(=O)O)C[C@](C(=O)O)(C[C@@H](C(=O)OC)C2=O)C1=O
cytotoxicity call [1]: inactive | growth inhibition call [2]: inactive

COc1ccc(NC(=O)Nc2ccc3c(c2)C(=O)N([C@H](C)CO)C[C@@H](C)[C@H](CN(C)Cc2ccc4c(c2)OCO4)OCCCC[C@@H](C)O3)cc1
cytotoxicity call [1]: inactive | growth inhibition call [2]: inactive

Cc1noc(C)c1S(=O)(=O)N(C)C[C@H]1Oc2ccc(NC(=O)Nc3ccc4c(c3)OCO4)cc2C(=O)N([C@@H](C)CO)C[C@H]1C
cytotoxicity call [1]: inactive | growth inhibition call [2]: inactive

COc1ccc(S(=O)(=O)Nc2ccc3c(c2)C(=O)N([C@H](C)CO)C[C@@H](C)[C@H](CN(C)S(=O)(=O)c2ccc(Cl)cc2)OCCCC[C@@H](C)O3)cc1
cytotoxicity call [1]: inactive | growth inhibition call [2]: inactive

COCCCN1C(=O)[C@@]2(Cc3ccccc31)c1ccccc1C(=O)N(C1CCCCC1)[C@H]2c1ccc(CO)cc1
cytotoxicity call [1]: inactive | growth inhibition call [2]: inactive

COc1ccc(S(=O)(=O)Nc2ccc3c(c2)C(=O)N([C@H](C)CO)C[C@H](C)[C@H](CN(C)C(=O)c2ccccc2)OCCCC[C@H](C)O3)cc1
cytotoxicity call [1]: inactive | growth inhibition call [2]: inactive

Cc1ccc(S(=O)(=O)N(C)C[C@H]2Oc3ccc(NS(=O)(=O)c4cn(C)cn4)cc3CC(=O)N([C@@H](C)CO)C[C@H]2C)cc1
cytotoxicity call [1]: inactive | growth inhibition call [2]: inactive

C[C@@H]1CN([C@@H](C)CO)C(=O)Cc2cc(NC(=O)C3CC3)ccc2O[C@H]1CN(C)S(=O)(=O)c1cccs1
cytotoxicity call [1]: inactive | growth inhibition call [2]: inactive

COc1ccc(S(=O)(=O)Nc2ccc3c(c2)C(=O)N([C@H](C)CO)C[C@H](C)[C@H](CN(C)Cc2ccc(Oc4ccccc4)cc2)O3)cc1
cytotoxicity call [1]: inactive | growth inhibition call [2]: inactive

COc1cccc(-c2cn(CC[C@@H]3CC[C@@H](NS(=O)(=O)c4ccccc4Cl)[C@H](CO)O3)nn2)c1
cytotoxicity call [1]: inactive | growth inhibition call [2]: inactive

C[C@@H]1CN([C@@H](C)CO)C(=O)CCCn2nncc2CO[C@@H]1CN(C)S(=O)(=O)c1ccc2c(c1)OCCCO2
cytotoxicity call [1]: inactive | growth inhibition call [2]: inactive

C[C@H](CO)N1C[C@H](C)[C@@H](CN(C)S(=O)(=O)c2cn(C)cn2)Oc2ccc(NC(=O)Cc3cn(C)c4ccccc34)cc2C1=O
cytotoxicity call [1]: inactive | growth inhibition call [2]: inactive

COc1ccc(S(=O)(=O)N(C)C[C@H]2OCCCC[C@H](C)Oc3ccc(NC(=O)NC4CCCCC4)cc3C(=O)N([C@H](C)CO)C[C@@H]2C)cc1
cytotoxicity call [1]: inactive | growth inhibition call [2]: inactive

C[C@H]1CN([C@@H](C)CO)C(=O)Cc2cc(NS(=O)(=O)c3ccc(Cl)cc3)ccc2O[C@H]1CN(C)C(=O)Nc1cccc2ccccc12
cytotoxicity call [1]: inactive | growth inhibition call [2]: inactive

O=C(N[C@H]1CC=CC[C@H](CC(=O)N(CCO)Cc2ccccc2)C(=O)N[C@H](Cc2ccccc2)COC1=O)OCC1c2ccccc2-c2ccccc21
cytotoxicity call [1]: inactive | growth inhibition call [2]: inactive

Cc1ccc(S(=O)(=O)Nc2cccc3c2O[C@@H](CN(C)Cc2ccc(C(F)(F)F)cc2)[C@@H](C)CN([C@H](C)CO)C3=O)cc1
cytotoxicity call [1]: inactive | growth inhibition call [2]: inactive

c1ccc2c(-c3cn[nH]c3)ccnc2c1
cytotoxicity call [1]: inactive | growth inhibition call [2]: inactive

CCc1nc2ccccc2c(N)c1C
cytotoxicity call [1]: inactive | growth inhibition call [2]: inactive

C[C@H](CO)N1C[C@H](C)[C@H](CN(C)S(=O)(=O)c2ccc(Cl)cc2)OCCCC[C@H](C)Oc2ccc(NC(=O)C3CCCCC3)cc2C1=O
cytotoxicity call [1]: inactive | growth inhibition call [2]: inactive

C[C@H](CO)N1C[C@H](C)[C@@H](CN(C)Cc2ccccc2)OCCCC[C@H](C)Oc2ccc(NC(=O)Nc3cccc4ccccc34)cc2C1=O
cytotoxicity call [1]: active | growth inhibition call [2]: inactive

CCC(=O)N1CCC(C(=O)O)CC1
cytotoxicity call [1]: inactive | growth inhibition call [2]: inactive

O=C(Cn1ccc([N+](=O)[O-])n1)N1CCOCC1
cytotoxicity call [1]: inactive | growth inhibition call [2]: inactive

CC(C)CC#Cc1ccc2c(c1)O[C@H](CN(C)C(=O)NC1CCCC1)[C@H](C)CN([C@H](C)CO)S2(=O)=O
cytotoxicity call [1]: inactive | growth inhibition call [2]: inactive

COc1ccc(CN(C)C[C@H]2OCCCC[C@H](C)Oc3ccc(NS(=O)(=O)c4ccc(OC)cc4)cc3C(=O)N([C@H](C)CO)C[C@H]2C)cc1
cytotoxicity call [1]: inactive | growth inhibition call [2]: inactive

CCC(=O)OCC(=O)C1(OC(=O)CC)C(C)CC2C3CCC4=CC(=O)C=CC4(C)C3(F)C(O)CC21C (configuration not stated)
cytotoxicity call [1]: inactive | growth inhibition call [2]: inactive

CN1C(=O)c2ccccc2C1=O
cytotoxicity call [1]: inactive | growth inhibition call [2]: inactive

Nc1cc(N)nc(SCCC(=O)O)n1
cytotoxicity call [1]: inactive | growth inhibition call [2]: inactive

Cc1noc(C)c1S(=O)(=O)N(C)C[C@H]1Oc2ccc(NS(=O)(=O)c3ccc(Cl)cc3)cc2CC(=O)N([C@H](C)CO)C[C@H]1C
cytotoxicity call [1]: inactive | growth inhibition call [2]: inactive

— the antibiotic and cytotoxicity screens of Wong et al. (2023)
